Measured values: the RNAGym collection of RNA variant scans (doi:10.7554/elife.90254)
The source gives no read counts; variants with many changes may rest on few reads.

B1: LINE1-mini (parent)
chain: GGCAGAGCUCAACACAGCGUGGCAAAGUGGCUGUGGCUAGACUGCC

Variants of: B1
Assay: self-cleavage, relative activity (ratio to wild type); higher = more cleavage; in vitro, sequencing; the parent is a self-cleaving ribozyme

Row | Variant | self-cleavage
1 | GGCAGAGCUCGACCCAGCGUGGCAAAUUGGCUGUGGCUAGACUGCC [A11G A14C G27U] | 0.03
2 | GGCAGUGCUCAACACAGCGUGCCAAAGUGGGUGCGGCUAGACUGCC [A6U G22C C31G U34C] | 0.05
3 | GGCAGAGCUCAAAACAGCGUGGCAAAAUGGCUGUGGGUAGACUGCC [C13A G27A C37G] | 0.02
4 | GCCAGAGCGCAACAUAGCGUAGCAAAGUGGCUGUGGCUAGACUGCA [G2C U9G C15U G21A C46A] | 0.03
5 | GGCAGAGCUCAACUCAGCAUGGCAUAGUGGCUGUAGCUAUACUGCC [A14U G19A A25U G35A G40U] | 0.06
6 | GGCAGAGCUCAACACAGCGAGGCAAAGUGGCUGUGGCUAGGUUGCC [U20A A41G C42U] | 0.06
7 | GGCAGGACACAACACAGCGUGGUAAAGUGGCUGUGGCUAGACUGCC [A6G G7A U9A C23U] | 0.07
8 | GGCAGAGCUCAACCCUGUGUGGCAAAGUGGCUGUGGCUAGACUGCC [A14C A16U C18U] | 0.03
9 | GGCAGUGCUCAACACAGCGUGGCAAAGUGGCUGUGGCUAGCCUGUC [A6U A41C C45U] | 0.03
10 | GGUAGAGCUCCACACAGCUCGGCAAAGUGGCUGUGGCUAGCCUGCC [C3U A11C G19U U20C A41C] | 0.02
11 | GGCAGAGCUCUACACAGCGGGGCAAAGUGGCUGUGCCUUGACUGCC [A11U U20G G36C A39U] | 0.01
12 | GGCAGGGCUCAACACAGAGUGGCAAAGUGGCUGUGGGUAGACUGCC [A6G C18A C37G] | 0.01
13 | UGCAGAGGUCAACACAGCGUGGCAAAGUGGCUGUGGCUAGACUCCC [G1U C8G G44C] | 0.02
14 | GGCAGAGCGCAACACAGCGUCGCACAGUGGCUGUGGCUAGACUGCC [U9G G21C A25C] | 0.05
15 | GGCAGAGCUCAACACAGUGUGGUAAAGUGGCUGAGGCUAGACCGCC [C18U C23U U34A U43C] | 0.05
16 | GUCAGAGCUCAACACAGCGUGGCAAAGUGACUGUGGUUAGACUGCC [G2U G30A C37U] | 0.01
17 | GGCAGAGCCCAACACUGCGUGGCAUAGUGGCUGUGGCUAGACUGCG [U9C A16U A25U C46G] | 0.01
18 | GGCAGAGCUCCACCCAGCGUGGCAAAGUGGCUGUGGCUAGGCUGCC [A11C A14C A41G] | 0.02
19 | CCCAGAGCUCAACACAGCGUGGCAAAGUGGCUGAGGCUAGACUGCC [G1C G2C U34A] | 0.05

Row | Variant | self-cleavage
20 | GGCAGAGCUCACCACCGCGUGGCAAAGUGGCUCUGGGUAGACUGCC [A12C A16C G33C C37G] | 0.01
21 | GGCAGAGCUCAACACUGCGUGGAGAAGUGGCUGUCGCUUGACUGCC [A16U C23A A24G G35C A39U] | 0
22 | GGCAGAGCCCAAGACAGCGUGGCAAAGUGGCUGCGGCUAGACUGCC [U9C C13G U34C] | 0.02
23 | GGCAGAACUCAAAACAGCGUGGCAAAGUGGCUGUGGAUAGACUGCC [G7A C13A C37A] | 0.48
24 | GGCAGAGCUCAACACAGCGUGGUAAAGUGGUUGUGGCUAGACUGCA [C23U C31U C46A] | 0.52
25 | GGCAGAGCUCAACAAAGCGUGGCAAUGCGGCUGUGGCUUGACUGCC [C15A A26U U28C A39U] | 0.08
26 | GGCAGAGCUCAACACGGCGUGGCAAAGUGGCUGUGGCUAGCCUCCC [A16G A41C G44C] | 0.06
27 | GGCAGAGCUCAACACAACGGGGCAAAGGGGCUGUGGCUAGACUGCC [G17A U20G U28G] | 0.02
28 | GGCAGAGCUCACGACAGCGUGGCAAAGUGGGUCUGGCUAGGCUGCC [A12C C13G C31G G33C A41G] | 0.01
29 | GGCAGACCUCAACACAGCGUGGCAAAGUGGGUGUGGGUAGACUGCC [G7C C31G C37G] | 0.01
30 | UUAAGAGCUCAACACAGCGUGUCAAAGUGGCUGUGGCUAGACUACC [G1U G2U C3A G22U G44A] | 1
31 | GGCAGAGCUCAACGCUGCGUGGCAAUGUGGCUGUGGCCACACUGCC [A14G A16U A26U U38C G40C] | 0
32 | GGCAGAGCUCAACACAGCGUGGCAAAGUGGCUUUGUCUAGAUUGCC [G33U G36U C42U] | 0.04
33 | UGCAGAGAUCAACGCAGCGUGGCAAAGUGGCUGUGGCUAGAAUGCC [G1U C8A A14G C42A] | 0.19
34 | GGCAGAUCUUAACACAGCGUGGCAAAGUGGCUGUGGCUAGAACGGC [G7U C10U C42A U43C C45G] | 0.02
35 | GGCAGAGCUCAACACAGCGUGGCAAAGUGGCUGGGGCUAGAUUGGC [U34G C42U C45G] | 0.03
36 | GGCAGAGCUCAACUCAGCCUGGCAAAGUGUCUGUGGCUAGACUGCC [A14U G19C G30U] | 0.14
37 | GGCAGAGCUGAAAAAAGCGUGGCAAAGUGCCUGUGGCUAGACUGCC [C10G C13A C15A G30C] | 0.02
38 | GGCAGAGCUCAACACAGCGUGAGAAAGUGGCUGUGUCUAGACAGCC [G22A C23G G36U U43A] | 0.18

Row | Variant | self-cleavage
39 | GGCACAGCUCAACACAGCUUGGUAAAGUCGCUAUGGCUAGACUGGC [G5C G19U C23U G29C G33A C45G] | 0.04
40 | GGCAUAGCUCAACACAGCGUGGCAAAGUGGUCGUGGCUAGACUUCA [G5U C31U U32C G44U C46A] | 0.02
41 | GGGAGAGCUCAACACAGCGUGGGAAAGUGGCUGUGGUUAGCCUGCC [C3G C23G C37U A41C] | 0.04
42 | GGCAGAGCUCAAAACAGCGUGGCAAGGUGGGUGUGGCUAGAAUGCC [C13A A26G C31G C42A] | 0.01
43 | GACAGAGCUCAACACAACGUGGCAAAGUGGCUGUGGCUAGACUGAC [G2A G17A C45A] | 0.15
44 | GGCAGAACUCUACACAGCGUGGCAGAGUGGCUGUGGCUAGACUGCC [G7A A11U A25G] | 0.06
45 | GGCAGAGCUCACCACAUCGUGGCAAAGUGGCUGAGGCUAGACUGCC [A12C G17U U34A] | 0
46 | GGCAGAGCUCAACACAGCGUGGCAAAGUUGCUGUGGCUCGGCUGCC [G29U A39C A41G] | 0.13
47 | GGCAGAGCUCAACACAGCGUGGAAAAGUUGCUGGGGCUAGACUGCC [C23A G29U U34G] | 0.32
48 | GGAAGAGCUCAACACAGCGAAGCAAAGUGGCUGGGGCUAGACUGCC [C3A U20A G21A U34G] | 0.19
49 | GGCAUAGCUAAACACAGCGUCGCAAAGUGGCUGUGGCUAGACCGCC [G5U C10A G21C U43C] | 0.01
50 | GGCAGAGGUCAACACAGCGUGGUAAAGAGACUGUGGCUAGACUGCC [C8G C23U U28A G30A] | 0.13
51 | CGCAGUGCUCAAAAGAGCGUGGCAAAGUGGCUGUGGCUAGACGGCC [G1C A6U C13A C15G U43G] | 0.03
52 | GGCAGAGCCCAACUCAGCGUGGCAAAGUUGCUGUGACUAGACUGCC [U9C A14U G29U G36A] | 0.03
53 | GGCAGUGCUCAACACAGCGUGCCAAAGUGGCUGUGGCUAGACCGCC [A6U G22C U43C] | 0.26
54 | GGCAGAACUCCACACAGCCUGGCCAAGUGGCUGUGGCUAGACUGCC [G7A A11C G19C A24C] | 0
55 | GGCAGAGCUCAACAAAGCGUCGCAAUGUGGGUGUGGCUAGACUGCC [C15A G21C A26U C31G] | 0.03
56 | GGCAGAGCUAAACACAGCGUGAUAACGUGGCUGUGGCUAUAGUGCC [C10A G22A C23U A26C G40U C42G] | 0.02
